The list shows a part of the results.
T1: UNK ZnF1-6 (called full-length) (human, UniProt Q9C0B0 30-357)
T1 sequence: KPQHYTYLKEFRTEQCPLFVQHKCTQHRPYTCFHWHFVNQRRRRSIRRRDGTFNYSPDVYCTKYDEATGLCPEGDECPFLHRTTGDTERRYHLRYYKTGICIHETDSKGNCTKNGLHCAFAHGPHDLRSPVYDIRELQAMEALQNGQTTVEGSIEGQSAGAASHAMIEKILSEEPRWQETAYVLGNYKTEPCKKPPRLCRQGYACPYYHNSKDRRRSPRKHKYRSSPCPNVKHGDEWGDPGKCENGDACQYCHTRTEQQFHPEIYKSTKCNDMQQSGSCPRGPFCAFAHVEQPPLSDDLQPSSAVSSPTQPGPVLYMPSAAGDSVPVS

B1: chr6:36925443:36925544:+|3pUTR|ENSG00000198663|msi1|total|mutant (ssRNA)
RNA: GGGAGUUCUACAGUCCGACGAUCGAGGCAUCCCGUGGGAAAGUCCCCUAAGUCCCAUUUUGUACUUCAACAAAAAAUGACUGCCGCAGAAGAUAAGUGGAGACUUUUAUGGAUAUACUACUCAUUUUACUUAAAAUCUACCCACAACAGAGGAUUGAGCAUCA
B2: chr7:7234405:7234460:+|CDS|ENSG00000106392|msi1_unk|FALSE|overlapping (ssRNA)
RNA: GGGAGUUCUACAGUCCGACGAUCAAUUUUUUAACCUUCCUCUGUGGAUCAGCAAUAGGAUUUCUUUUAUGUUCUCAGCUAUUUAGUAUUUUGUUGGGAGAAAAGGUUGACACCCAGCCUAAUGUUCUUCAUAAUGAUCCUCAUCAACAGAGGAUUGAGCAUCA
B3: chr2:212999690:213008084:-|three_prime_utr|ENSG00000030419|control|control|control (ssRNA)
RNA: GGGAGUUCUACAGUCCGACGAUCACAAUCGCUGAAGUGGCCCCAGUUAUAAGCUCAGCUUAUUCUCAGGUCUAUCAUCCAAAUAGGAUAGAAAGACCCAUUAGCAGGGAAACUGCUGAUAGUCAUGAAAACAACAUGGAUGGCCAACAGAGGAUUGAGCAUCA
B4: chr1:160214333:160214525:+|3pUTR|ENSG00000162734|msi1|total|mutant (ssRNA)
RNA: GGGAGUUCUACAGUCCGACGAUCCUACAGUGUUUUCCUUUGCACCGAUCCCCACCCCAAUUCAAUCCCGGAAGGGACUUACUCCGGAAACCCUUCUUUACCCGAUAUCCUGGCCCCCUGGGCUUGUGAACACCUCCCCGCCACCAACAGAGGAUUGAGCAUCA
B5: chr20:18487131:18487232:-|3pUTR|ENSG00000089050|msi1|total|mutant (ssRNA)
RNA: GGGAGUUCUACAGUCCGACGAUCAAAUACCGUAACCAGUAACCACAGCCCGCUGUAAAAUUGAAAAUUCAGUUCAGUCAAACCCGCCAUAUUUCAAGUGCUCAACAGCCACUGGUGGCUAUUGGUUACCUUACUGACCAGCCACAACAGAGGAUUGAGCAUCA
B6: chr15:67202635:67202736:-|3pUTR|ENSG00000103591|msi1|FALSE|unique (ssRNA)
RNA: GGGAGUUCUACAGUCCGACGAUCUGCCAAAAUUGCCCUUAUCAUGUUGGCUGCCUGACUUGUUUAUAGGGUCCCCUUAAUUUUAGUUUUUAGUAGGAGGUUAAGGAGAAAUCUUUUUUUUCCUCAGUAUAUUGUAAGAGAGUGCAACAGAGGAUUGAGCAUCA
B7: chr6:119178661:119178762:-|3pUTR|ENSG00000111885|msi1|total|mutant (ssRNA)
RNA: GGGAGUUCUACAGUCCGACGAUCGAAAGAAGCUUUGCCAAUUUUACUUAUUCGUGAUCAAUCAAGGAAAAUCUAAUAAAUUUCCGGCCAAAUAAGAAUACCGCAUAUUCCGUAUGGUUACCGUCAACACAGAGAUCACAACUUCAACAGAGGAUUGAGCAUCA
B8: ENSG00000107863:be:win_5801|CDS_3pUTR|ENSG00000107863|bound_else_gene|NA|bound_elsewhere_windowed (ssRNA)
RNA: GGGAGUUCUACAGUCCGACGAUCGUUCUGCAGCGAAUGCCCAACCUCAUAAACUGUCUGAAACCCCAGGCAGUAAAGCAGAGUUUCAUCCCUGUCUUUAAACUGGGGGUAUGUCCACUCUAGCAAGUAAAAAAACUACUGUUACAACAGAGGAUUGAGCAUCA
B9: chr1:17283265:17283432:+|3pUTR|ENSG00000142619|msi1|total|mutant (ssRNA)
RNA: GGGAGUUCUACAGUCCGACGAUCCAUGUGGUUCUCAGACUUGAAUCUUCUCGGCCCCCCAAAAAGAAGGACCUCAUUUCUUACCGCCUCUCCUGUGAUUCAACACAACCCAUGGAGAUGUCCCCUUCUCACUCUGAAAUCAUCCAACAGAGGAUUGAGCAUCA
B10: ENSG00000175216:stop:overlap|stop_codon|ENSG00000175216|stop_codon|NA|stop_codon (ssRNA)
RNA: GGGAGUUCUACAGUCCGACGAUCGAUGUGGUCUGGACAACACAAAGGUACUGCUCCUUUUCUUCUGUGCAGUUCAGGGAGGGUAGUCACAAGCAGGUCCGAGGCAGGCUGGCCCACAGAGAAGUGGCUUAGUCUUGCUGUAGUCAACAGAGGAUUGAGCAUCA
B11: ENSG00000124766:be:win_3001|3pUTR|ENSG00000124766|bound_else_gene|NA|bound_elsewhere_windowed (ssRNA)
RNA: GGGAGUUCUACAGUCCGACGAUCUUUUUUUGGUAGUUGUUGUUACCCACGCCAUUUUACGUCUCCUUCACUGAAGGGCUAGAGUUUUAACUUUUAAUUUUUUAUAUUUAAAUGUAGACUUUUGACACUUUUAAAAAACAAAAACAACAGAGGAUUGAGCAUCA
B12: chr5:138873012:138874556:-|CDS|ENSG00000146006|control|control|control (ssRNA)
RNA: GGGAGUUCUACAGUCCGACGAUCUUUAUUAUUUUUAUAGUGUUCAUCUCCAGGAAGUGCUGCCCUCCCACUUUAAGAAGAAUUAGGCAGUGCUCAAUGGUUCAGAACCACAGGCAGCUCCGAUCCCAAACACGACUCCAUAUGCAACAGAGGAUUGAGCAUCA
B13: chr20:7982266:7982367:-|CDS|ENSG00000125827|msi1|FALSE|bound_elsewhere (ssRNA)
RNA: GGGAGUUCUACAGUCCGACGAUCGAGAAGUGAGGCCAAUGAUCAGGGGCCCCCAGGAGAGGACGGUGUGACCCGGGAGGAAGUAGAGCCUGAGGAGGCUGAAGAAGGCAUCUCUGAGCAACCCUGCCCAGCUGACACAGAGGUCAACAGAGGAUUGAGCAUCA
B14: ENSG00000198589:be:win_4351|CDS|ENSG00000198589|bound_else_gene|NA|bound_elsewhere_windowed (ssRNA)
RNA: GGGAGUUCUACAGUCCGACGAUCGCAGUAAGGAAUUGCUUGGAGUGUCAACAGCAUUCACAACUGAAAACUAGGGGAGAUAAAGCCUUGAAACCAAUGCAUAGCCUUAUUCCUUUAGGGAAAUCUGCAGCGAAGAGCCCAGUGCAACAGAGGAUUGAGCAUCA
B15: chr7:47276374:47276475:-|3pUTR|ENSG00000136205|msi1|FALSE|unique (ssRNA)
RNA: GGGAGUUCUACAGUCCGACGAUCCUGGGGUUUGGGAAUGUGCUUUGUGAACUCUGCUUUAAAGUGAGGGGCCGAGGAAAACUUAGAAACAGGCAGAGUUGGAAGCAGCCAAAUCACAGUGGGUGUUGUGUGUGUGUGCGUGUGCAACAGAGGAUUGAGCAUCA
B16: chr17:7460970:7461071:-|3pUTR|ENSG00000174282|msi1|FALSE|unique (ssRNA)
RNA: GGGAGUUCUACAGUCCGACGAUCGGAUGGAGAAGGGAAUCUACUUUCUCCCUGUUUUUUUUUCCUGAUGGUUUCUCCCAGACUAGACCAAAUAGCCAGAAAAAUGAUAGGGGUCGGAUGGGUGGGUAAGCCCAGGAUUUGCACCAACAGAGGAUUGAGCAUCA
B17: chr2:190436306:190436418:+|CDS|ENSG00000151690|unk|total|mutant (ssRNA)
RNA: GGGAGUUCUACAGUCCGACGAUCCCUUUUGCCUGUGUAUUACAAACAGCUGGGAAUGUCUCCAAGCCAGAGUGGACUACCCGCCGGUAUUCGUUACUUCAUUGAAUUCUGCAGUGCCCCCUUUUGGGGUGCCGUUGCAGACCGCAACAGAGGAUUGAGCAUCA
B18: ENSG00000198589:be:win_1651|CDS|ENSG00000198589|bound_else_gene|NA|bound_elsewhere_windowed (ssRNA)
RNA: GGGAGUUCUACAGUCCGACGAUCUUUUCAAAAUAUCUGAGUAAUCUGCAGAAUGGGAUGCCCCUGCUCAAGCAAUUGUGUGAUCACGUUCUUCUUAAUCCUGCCAUAUGGAUUCAUACCCCAGCCAAGGUUCAACUGAUGCUCCAACAGAGGAUUGAGCAUCA
B19: chr15:100649042:100649144:+|3pUTR|ENSG00000183475|unk|FALSE|unique (ssRNA)
RNA: GGGAGUUCUACAGUCCGACGAUCUACCUCUGCUUUUCUUUUGCUGUGCUCUUGUUUUUAACUUAUUUUUUUUUUAACAACUGUAGUACACUACCCUGAGACACUGCAUCUCGAUUUCUAUCUCUAGUUAGAGUUGUACUUUUACAACAGAGGAUUGAGCAUCA
B20: chr10:30461265:30461366:+|3pUTR|ENSG00000107968|unk|total|mutant (ssRNA)
RNA: GGGAGUUCUACAGUCCGACGAUCUCUUUGAGCCUUUAUUGGUAAAUUCUGGUAUACAUUGAAUUCAUUAUAAUUUGGGUGACCCGAACAACUUGAAGAUUGCCGCAAUAAGCUGGACCCGUGUCCUAAAAAUGGCUAACUGAUCAACAGAGGAUUGAGCAUCA
B21: chr7:44064065:44064166:+|3pUTR|ENSG00000136279|msi1|total|mutant (ssRNA)
RNA: GGGAGUUCUACAGUCCGACGAUCGCACACCCUUCCCGCCUUUCCAGGACUCAACAAGCUUUAAGGUCAUUCAGAUGCUAAUUCCGACUGCCCUUGUGUCAGAAUACUAAGGUGGGAGGCGGAGCGGAGGUGCCAGUCACUCUGCAACAGAGGAUUGAGCAUCA
B22: chrX:107070192:107070425:-|CDS|ENSG00000089682|control|control|control (ssRNA)
RNA: GGGAGUUCUACAGUCCGACGAUCCGUUCUAGGAGCCAAAUGGCAGAAAAGGACUGGGAGGACCUCAACAUUUAGUAUUCUCUUAGUUUCCUUGCUUUCAGAAACAGUGUUCACAUCUUCAGCCAUGUAUGGCAUUCCCCAUCUCAACAGAGGAUUGAGCAUCA

Each binder was assayed against T1, UNK ZnF1-6 (called full-length) (assay: nsRBNS (natural sequence RNA bind-n-seq); RBNS binding buffer (assumed for nsRBNS): 25 mM Tris pH 7.5, 150 mM KCl, 3 mM MgCl2, 0.01% Triton X-100, 500 ug/ml BSA, 20 U/ml SUPERase-In, 4 C; UNK is unkempt and MSI1 is Musashi-1; names of the RNAs are library labels; protein concentration not given here; high values mean tight binding).

Binder	binding signal
B1	0.615 enrichment R
B2	2.12 enrichment R
B3	0.447 enrichment R
B4	1.14 enrichment R
B5	0.473 enrichment R
B6	15.9 enrichment R
B7	0.406 enrichment R
B8	0.526 enrichment R
B9	0.501 enrichment R
B10	0.392 enrichment R
B11	4.11 enrichment R
B12	1.45 enrichment R
B13	0.931 enrichment R
B14	0.566 enrichment R
B15	1.53 enrichment R
B16	3.61 enrichment R
B17	0.392 enrichment R
B18	0.479 enrichment R
B19	5.29 enrichment R
B20	0.335 enrichment R
B21	0.583 enrichment R
B22	3.69 enrichment R

— paper PMC12136788
